# Measured values as given in PMC4242493.
# This is one part of the list. The list includes weakly bound sequences.
# Target: MaxL homodimer (UniProt P61244)
# Experiment: universal protein-binding microarray (PBM)
# Conditions: PBS-based mixture, 10 nM His-tagged protein dimer, 2% milk, 200 ng/uL BSA, 50 ng/uL salmon testes DNA, 0.02% TX-100; detection with Alexa 488 anti-His …; high values mean tight binding; most listed sequences are background and not binding sites; double strand, one strand shown
# UniProt P61244, sequence (P61244 whole entry): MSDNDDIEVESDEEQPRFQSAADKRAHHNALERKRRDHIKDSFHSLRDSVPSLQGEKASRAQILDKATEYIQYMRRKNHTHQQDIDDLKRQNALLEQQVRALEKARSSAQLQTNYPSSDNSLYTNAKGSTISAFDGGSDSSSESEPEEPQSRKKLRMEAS
row,Sequence,binding signal (normalized occupancy)
1,GCGATACA,0.0824
2,AACCCAGG,0.0696
3,AACGTAGC,0.0749
4,CTCGCTTC,0.0707
5,ACAAAGAT,0.0741
6,CTCGGTAA,0.0692
7,AAAACAGT,0.0767
8,AGCCCTAT,0.0737
9,AATCTAAT,0.0848
10,ACACACTA,0.0817
11,GGGACGAC,0.0641
12,CGTGGACA,0.0882
13,CATAATAA,0.0832
14,ACAGTTCA,0.0754
15,CGCAAAAC,0.071
16,GATTGTAC,0.0812
17,ACGGTAGA,0.0739
18,CGTAGCAC,0.0845
19,AGTCTGGG,0.0695
20,CTGCTAAC,0.0703
21,CTAGTCAA,0.073
22,CCCATTAA,0.0796

row,Sequence,binding signal (normalized occupancy)
1,AAAATAGT,0.077
2,GGCTCTAA,0.0722
3,GACGGCAA,0.0705
4,ACCCTGAG,0.0718
5,ACCTAGGG,0.0695
6,AAAGTAGA,0.0741
7,CACGTACG,0.0871
8,AACCACCC,0.0803
9,GTCTTGAA,0.069
10,GTGCACGA,0.0931
11,CGATGGGC,0.0743
12,GACCTAAA,0.0709
13,GCAAGACA,0.0782
14,ACCTACTG,0.0732
15,AACAATAT,0.0773
16,AGGACCGA,0.0724
17,TATGAGAA,0.0827
18,CCTCTGTC,0.0768
19,ATAGCAAG,0.079
20,CTATGCGA,0.0757
21,CTCGAATC,0.0698
22,AGTACGAC,0.0751

row,Sequence,binding signal (normalized occupancy)
1,ACCACCAA,0.0753
2,ATATTCGC,0.0786
3,GCCACCGC,0.0708
4,CCTTTCAA,0.078
5,ACTTCCAT,0.0785
6,ATCAACGC,0.077
7,GATAAAGC,0.0748
8,CAGTCGGA,0.0691
9,TCTTTACA,0.0746
10,GATAGAGA,0.0748
11,AGTAAGAT,0.077
12,TCCTGACA,0.076
13,CGAGTGGC,0.0717
14,ATGGTACA,0.0846
15,AGTCGTAA,0.0729
16,CTTTTAAC,0.0745
17,AGGTGCGG,0.0789
18,AAAAATGT,0.0782
19,AAAACAAG,0.0705
20,TATTGCAA,0.0707
21,CTATCCCC,0.0822
22,AACTCAAA,0.0727

row,Sequence,binding signal (normalized occupancy)
1,ATGTAACC,0.076
2,GTGTGGAA,0.0875
3,ACATACGG,0.0807
4,GGCTCTCA,0.0759
5,CACGCGCC,0.116
6,GACGAATC,0.0742
7,TTACGTAA,0.0786
8,AAGACGGA,0.0645
9,GCCAGACA,0.0735
10,AATGCTCA,0.0829
11,AGCAGCTC,0.0687
12,CGGGCAAG,0.0722
13,CCGGACTC,0.0654
14,AGCCTTCG,0.0682
15,GGTCACTA,0.0724
16,ACGAAGAG,0.0753
17,AGTGCCAG,0.0697
18,TCTCAAAA,0.0792
19,AGGTCATG,0.089
20,AAACCCTG,0.0707
